{"source": "the supplement of paper PMC9446081", "note": "Screen size: about 39,000 compounds; about 220 (0.56%) showed activity. This is one part of the list.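 Also: static incubation at 37 °C against the wild-type strain, values averaged over two biological replicates.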"}
{"tested_on": "Escherichia coli K-12 BW25113", "test": "relative growth (OD600 normalised to plate interquartile mean) (fraction); higher = less growth inhibition, active = 0.2 or less", "conditions": "50 µM; LB; incubation time: overnight (16-24 h)"}
{"smiles": "C[C@@H]1CN([C@@H](C)CO)C(=O)c2cc(NC(=O)Nc3ccc4c(c3)OCO4)ccc2O[C@@H](C)CCCCO[C@H]1CN(C)Cc1ccncc1", "relative growth": "inactive: 1"}
{"smiles": "C[C@@H]1CCCCO[C@@H](CN(C)Cc2ccc(C(=O)O)cc2)[C@@H](C)CN([C@H](C)CO)C(=O)c2cc(NS(=O)(=O)c3cccs3)ccc2O1", "relative growth": "inactive: 0.925"}
{"smiles": "N=C(N)c1ccc2nc(-c3cc(CC(=O)N[C@@H](CC(=O)O)C(=O)O)cc(-c4cc(S(N)(=O)=O)ccc4O)c3O)[nH]c2c1", "relative growth": "inactive: 1"}
{"smiles": "C[C@@H]1CN([C@@H](C)CO)C(=O)Cc2cc(NS(=O)(=O)c3cccs3)ccc2O[C@@H]1CN(C)Cc1ccc(Cl)c(Cl)c1", "relative growth": "inactive: 1"}
{"smiles": "NC(C(=O)NC1C(=O)N2C(C(=O)O)=C(Cl)CSC12)c1ccccc1", "note": "(configuration not stated)", "relative growth": "active: 0.0491"}
{"smiles": "COc1ccc(CN(C)C[C@@H]2OCCCC[C@H](C)Oc3ccc(NC(=O)Cc4ccccc4)cc3C(=O)N([C@@H](C)CO)C[C@H]2C)cc1", "relative growth": "inactive: 1.02"}
{"smiles": "C[C@@H]1CN([C@H](C)CO)C(=O)c2cc(NC(=O)Cc3ccccc3)ccc2O[C@@H](C)CCCCO[C@H]1CN(C)C(=O)Nc1ccc(F)cc1", "relative growth": "inactive: 0.994"}
{"smiles": "CO[C@@H]1CN(C)C(=O)c2cc(NC(=O)C3CC3)ccc2OC[C@H](C)N(C(=O)CN2CCOCC2)C[C@@H]1C", "relative growth": "inactive: 0.991"}
{"smiles": "O=C(C[C@@H]1CC[C@@H]2[C@H](COC[C@H](O)CN2S(=O)(=O)c2ccccc2)O1)NCc1ccncn1", "relative growth": "inactive: 0.979"}
{"smiles": "C[C@@H]1CN([C@@H](C)CO)S(=O)(=O)c2ccc(-c3ccc(C(=O)N(C)C)cc3)cc2O[C@H]1CN(C)C(=O)C1CCC1", "relative growth": "inactive: 0.999"}
{"smiles": "CC(C)(CO)c1cc2cc(NC(=O)C3(c4ccc5c(c4)OC(F)(F)O5)CC3)c(F)cc2n1C[C@@H](O)CO", "relative growth": "inactive: 0.96"}
{"smiles": "Cc1ccc(Cn2c3ccccc3c3ccccc32)cc1", "relative growth": "inactive: 1.02"}
{"smiles": "COC(=O)C1C(O)CCC2CN3CCc4c([nH]c5ccccc45)C3CC21.Cl", "note": "(configuration not stated)", "relative growth": "inactive: 1.1"}
{"smiles": "C[C@@H]1CN([C@@H](C)CO)S(=O)(=O)c2ccc(C#Cc3cccnc3)cc2O[C@@H]1CN(C)C(=O)Nc1ccc2c(c1)OCO2", "relative growth": "inactive: 0.95"}
{"smiles": "O=C(N[C@H](c1ccc(Cl)cc1)c1ccccn1)C1CCN(CCOc2ccc(Cl)cc2Cl)CC1", "relative growth": "inactive: 0.956"}
{"smiles": "CC1(C)S[C@H]2[C@@H](NC(=O)[C@@H](NC(=O)N3CCN(S(C)(=O)=O)C3=O)c3ccccc3)C(=O)N2[C@@H]1C(=O)O", "relative growth": "inactive: 0.237"}
{"smiles": "C[C@H]1CN([C@@H](C)CO)C(=O)c2cc(NS(=O)(=O)c3cn(C)cn3)ccc2O[C@@H]1CN(C)Cc1ccc(C(=O)O)cc1", "relative growth": "inactive: 1.04"}
{"smiles": "Cc1ccc(S[C@]2(C(=O)NCCN3CCOCC3)CC(=O)N(Cc3cc(C(F)(F)F)cc(C(F)(F)F)c3)[C@@H]2c2ccc(CO)cc2I)cc1", "relative growth": "inactive: 0.97"}
{"smiles": "C[C@H](CO)N1C[C@H](C)[C@@H](CN(C)Cc2ccc(F)cc2)Oc2cc(C#CCN(C)C)ccc2S1(=O)=O", "relative growth": "inactive: 1.01"}
{"smiles": "C[C@H](CO)N1C[C@H](C)[C@H](CN(C)S(=O)(=O)c2cccc(F)c2)Oc2ncc(C#CCN(C)C)cc2C1=O", "relative growth": "inactive: 0.971"}
{"smiles": "CC(C)[C@H]1CC[C@@H](C)C[C@@H]1NC(=O)c1cccc2ccccc12", "relative growth": "inactive: 1.03"}
{"smiles": "Cc1ccc(C(N)=O)cc1N(C)S(C)(=O)=O", "relative growth": "inactive: 1.02"}
{"smiles": "C[C@H](CO)N1C[C@H](C)[C@@H](CN(C)Cc2ccc(-c3ccccc3)cc2)Oc2ccc(NC(=O)C3CCCCC3)cc2CC1=O", "relative growth": "inactive: 0.984"}
{"smiles": "C[C@@H]1CCCCO[C@@H](CN(C)CC2CCCCC2)[C@@H](C)CN([C@@H](C)CO)C(=O)c2cc(NC(=O)CCC(F)(F)F)ccc2O1", "relative growth": "inactive: 0.982"}
{"smiles": "CCCCC1C(=O)N(c2ccccc2)N(c2ccccc2)C1=O", "relative growth": "inactive: 1.05"}
{"smiles": "C[C@H](CO)N1C[C@H](C)[C@@H](CN(C)C(=O)Nc2ccc(F)cc2)Oc2c(NC(=O)c3cnccn3)cccc2C1=O", "relative growth": "inactive: 1.01"}
{"smiles": "C[C@@H]1CN([C@H](C)CO)C(=O)c2cc(NC(=O)Cc3cn(C)c4ccccc34)ccc2O[C@H]1CN(C)S(C)(=O)=O", "relative growth": "inactive: 0.991"}
{"smiles": "C[C@@H]1O[C@@H](Oc2c(-c3cc(O)c(O)c(O)c3)oc3cc(O)cc(O)c3c2=O)[C@H](O)[C@H](O)[C@H]1O", "relative growth": "inactive: 1.03"}
{"smiles": "Cc1noc(C)c1NC(=O)N(C)C[C@H]1Oc2c(NS(=O)(=O)c3cn(C)cn3)cccc2C(=O)N([C@@H](C)CO)C[C@@H]1C", "relative growth": "inactive: 1.03"}
{"smiles": "COc1ccc(NC(=O)N(C)C[C@@H]2OCc3cnnn3CCCC(=O)N([C@H](C)CO)C[C@@H]2C)c(OC)c1", "relative growth": "inactive: 1.02"}
{"smiles": "O=C(CN1CCOCC1)NCC[C@H]1CC[C@H](NS(=O)(=O)c2ccc(Cl)cc2)[C@H](CO)O1", "relative growth": "inactive: 1.01"}
{"smiles": "CCc1nc2ccc(C(=O)Nc3cccc(OCC(=O)N(C)C)c3)cn2c1N(C)C(=O)c1ccncc1", "relative growth": "inactive: 0.989"}
{"smiles": "C=CCOC(=O)C1=C[C@@H](c2cn(C(C)=O)c3ccccc23)C[C@@H](OCc2ccc(COC(=O)NCCCCCC(=O)NO)cc2)O1", "relative growth": "inactive: 0.984"}
{"smiles": "CCCNC(=O)[C@@H]1[C@@H](CO)[C@@H]2Cn3c(ccc(-c4ccccc4OC)c3=O)[C@@H]2N1S(C)(=O)=O", "relative growth": "inactive: 1"}
{"smiles": "C[C@@H]1CN([C@H](C)CO)C(=O)c2cc(NC(=O)Nc3ccc(C(F)(F)F)cc3)ccc2O[C@@H](C)CCCCO[C@H]1CN(C)C", "relative growth": "inactive: 0.952"}
{"smiles": "Cc1noc(C)c1S(=O)(=O)Nc1ccc2c(c1)C(=O)N([C@H](C)CO)C[C@H](C)[C@H](CN(C)C(=O)Nc1cccc3ccccc13)OCCCC[C@@H](C)O2", "relative growth": "inactive: 0.996"}
{"smiles": "OCCNC(=S)NC1CCCC1", "relative growth": "inactive: 1.02"}
{"smiles": "Cc1ccc(S(=O)(=O)N(C)C[C@@H]2Oc3c(NC(=O)c4cc(C)nn4C)cccc3C(=O)N([C@@H](C)CO)C[C@H]2C)cc1", "relative growth": "inactive: 1.01"}
{"smiles": "Cc1ccc(S(=O)(=O)N(C)C[C@H]2OCCCC[C@@H](C)Oc3ccc(NC(=O)Nc4c(C)noc4C)cc3C(=O)N([C@@H](C)CO)C[C@H]2C)cc1", "relative growth": "inactive: 0.977"}
{"smiles": "C[C@H]1CCCCO[C@@H](CN(C)S(=O)(=O)c2ccccc2)[C@@H](C)CN([C@@H](C)CO)C(=O)c2cc(NC(=O)CCC(F)(F)F)ccc2O1", "relative growth": "inactive: 0.979"}
{"smiles": "COc1ccc(Cc2nn[nH]n2)cc1", "relative growth": "inactive: 1"}
{"smiles": "C[C@@H]1CN([C@H](C)CO)C(=O)c2cc(NS(=O)(=O)c3ccccc3)ccc2O[C@@H]1CN(C)Cc1ccc(Oc2ccccc2)cc1", "relative growth": "inactive: 0.997"}
{"smiles": "O=C(OCc1ccccc1)c1cccnc1", "relative growth": "inactive: 0.814"}
{"smiles": "Cc1ccc(S(=O)(=O)N(C)C[C@H]2Oc3ccc(NC(=O)Cn4cnnn4)cc3C(=O)N([C@H](C)CO)C[C@@H]2C)cc1", "relative growth": "inactive: 1"}
{"smiles": "COc1ccc2c3c(n(c2c1)C)[C@@H](CO)N(C[C@]13CN(C1)S(=O)(=O)C)C(=O)CN(C)C", "relative growth": "inactive: 1"}
{"smiles": "O=C(Nn1cnnc1)c1ccccc1", "relative growth": "inactive: 1.05"}
{"smiles": "C[C@H](CO)N1C[C@H](C)[C@H](CN(C)S(=O)(=O)c2ccccc2)Oc2ccc(NC(=O)Nc3cccc4ccccc34)cc2C1=O", "relative growth": "inactive: 1.03"}
{"smiles": "COc1ccc(CN(C)C[C@@H]2OCCCC[C@H](C)Oc3ccc(NS(=O)(=O)c4cccs4)cc3C(=O)N([C@@H](C)CO)C[C@H]2C)cc1", "relative growth": "inactive: 1.01"}
{"smiles": "COc1ccc(S(=O)(=O)Nc2ccc3c(c2)CC(=O)N([C@@H](C)CO)C[C@@H](C)[C@@H](CN(C)Cc2ccncc2)O3)cc1", "relative growth": "inactive: 0.981"}
{"smiles": "COc1ccc(NC(=O)Nc2ccc3c(c2)C(=O)N([C@@H](C)CO)C[C@H](C)[C@H](CN(C)CC2CCCCC2)OCCCC[C@H](C)O3)cc1", "relative growth": "inactive: 0.963"}
{"smiles": "CN1C(=O)c2cc(NS(=O)(=O)c3ccc(F)cc3)ccc2OC[C@@H]2O[C@H](CC(=O)NCC(F)(F)F)CC[C@@H]21", "relative growth": "inactive: 0.988"}
{"smiles": "C[C@@H]1CN([C@H](C)CO)C(=O)c2cc(NS(=O)(=O)c3cn(C)cn3)ccc2O[C@@H](C)CCCCO[C@@H]1CN(C)S(C)(=O)=O", "relative growth": "inactive: 0.989"}
{"smiles": "C[C@H]1CN([C@@H](C)CO)C(=O)c2cc(NS(C)(=O)=O)ccc2O[C@H]1CN(C)Cc1ccc2c(c1)OCO2", "relative growth": "inactive: 1.01"}
{"smiles": "C[C@@H]1CCCCO[C@H](CN(C)C(=O)Nc2ccccc2)[C@@H](C)CN([C@H](C)CO)C(=O)c2cc(NC(=O)Nc3ccc(C(F)(F)F)cc3)ccc2O1", "relative growth": "inactive: 1.01"}
{"smiles": "CCOC(=O)[C@H](Cc1c[nH]c2ccccc12)NC(=O)Cn1cc(CN2C(=O)COC[C@H]2c2ccccc2)nn1", "relative growth": "inactive: 1.01"}
{"smiles": "C[C@@H]1CN([C@H](C)CO)S(=O)(=O)c2ccc(C3=CCCC3)cc2O[C@@H]1CN(C)C(=O)C1CCOCC1", "relative growth": "inactive: 1"}
{"smiles": "COc1ccc(S(=O)(=O)N(C)C[C@@H]2OCCCC[C@@H](C)Oc3ccc(NC(=O)C4CCCCC4)cc3C(=O)N([C@H](C)CO)C[C@H]2C)cc1", "relative growth": "inactive: 1.03"}
{"smiles": "C[C@@H]1CN([C@@H](C)CO)C(=O)c2cc(C#C[C@@H](C)O)cnc2O[C@@H]1CN(C)C(=O)Nc1ccc(C(F)(F)F)cc1", "relative growth": "inactive: 1"}
{"smiles": "Oc1ccc([C@@H]2C=CCC2)cc1", "relative growth": "inactive: 0.947"}
{"smiles": "CC(C)C(N)C(=O)OCC(CO)OCn1cnc2c(=O)[nH]c(N)nc21.Cl", "note": "(configuration not stated)", "relative growth": "inactive: 1.13"}
{"smiles": "C[C@@H]1CN([C@H](C)CO)C(=O)c2cccc(NS(C)(=O)=O)c2O[C@H]1CN(C)C(=O)Nc1ccc2c(c1)OCO2", "relative growth": "inactive: 0.996"}
{"smiles": "O=C(CCCCC(=O)Nc1c(I)cc(I)c(C(=O)O)c1I)Nc1c(I)cc(I)c(C(=O)O)c1I", "relative growth": "inactive: 1.06"}
